# From the supplement of paper PMC8728848
# The list shows a part of the results.
# Assays:
# Assay in all cases: glycan array binding signal (z-score within array); higher = stronger binding
# Conditions in all cases: glycan notation: IUPAC condensed, linker removed
# [1] = biological target: Neu5Ac(a2-3)Gal6S(b1-4)[Fuc(a1-3)]GlcNAc
# Summary of the method: (§1)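 Columns mapping to the same glycan were averaged after glycan names were converted to IUPAC-condensed notation. The data come from 3228 arrays in the Consortium for Functional Glycomics database, limited to those with an available protein sequence. Binding is reported as a within-array Z-score averaged across arrays of one protein sequence and across linkers.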
# [2] = biological target: Neu5Ac(a2-3)GalNAc
# Summary of the method: as §1
# [3] = biological target: Neu5Ac(a2-3)GalNAc(b1-4)GlcNAc
# Summary of the method: as §1
# [4] = biological target: Neu5Ac(a2-3)[GalNAc(b1-4)]Gal(b1-4)Glc
# Summary of the method: as §1
# [5] = biological target: Neu5Ac(a2-3)[GalNAc(b1-4)]Gal(b1-4)GlcNAc
# Summary of the method: as §1
# [6] = biological target: Neu5Ac(a2-3)[GalNAc(b1-4)]Gal(b1-4)GlcNAc(b1-3)GalNAc
# Summary of the method: as §1
# [7] = biological target: Neu5Ac(a2-3)[Neu5Ac(a2-6)]GalNAc
# Summary of the method: as §1
# [8] = biological target: Neu5Ac(a2-6)Gal
# Summary of the method: as §1
# [9] = biological target: Neu5Ac(a2-6)Gal(b1-3)GlcNAc(b1-3)[Gal(b1-4)GlcNAc(b1-6)]Gal(b1-4)Glc
# Summary of the method: as §1
# [10] = biological target: Neu5Ac(a2-6)Gal(b1-4)Glc
# Summary of the method: as §1
# [11] = biological target: Neu5Ac(a2-6)Gal(b1-4)GlcNAc
# Summary of the method: as §1
# [12] = biological target: Neu5Ac(a2-6)Gal(b1-4)GlcNAc(b1-2)Man
# Summary of the method: as §1
# [13] = biological target: Neu5Ac(a2-6)Gal(b1-4)GlcNAc(b1-2)Man(a1-3)Man(b1-4)GlcNAc(b1-4)GlcNAc
# Summary of the method: as §1
# [14] = biological target: Neu5Ac(a2-6)Gal(b1-4)GlcNAc(b1-2)Man(a1-3)[Gal(b1-4)GlcNAc(b1-2)Man(a1-6)]Man(b1-4)GlcNAc(b1-4)GlcNAc
# Summary of the method: as §1
# [15] = biological target: Neu5Ac(a2-6)Gal(b1-4)GlcNAc(b1-2)Man(a1-3)[GlcNAc(b1-2)Man(a1-6)]Man(b1-4)GlcNAc(b1-4)GlcNAc
# Summary of the method: as §1
# [16] = biological target: Neu5Ac(a2-6)Gal(b1-4)GlcNAc(b1-2)Man(a1-3)[GlcNAc(b1-4)][Neu5Ac(a2-6)Gal(b1-4)GlcNAc(b1-2)Man(a1-6)]Man(b1-4)GlcNAc(b1-4)GlcNAc
# Summary of the method: as §1
# [17] = biological target: Neu5Ac(a2-6)Gal(b1-4)GlcNAc(b1-2)Man(a1-3)[Man(a1-6)]Man(b1-4)GlcNAc(b1-4)GlcNAc
# Summary of the method: as §1
# [18] = biological target: Neu5Ac(a2-6)Gal(b1-4)GlcNAc(b1-2)Man(a1-3)[Neu5Ac(a2-3)Gal(b1-4)GlcNAc(b1-2)Man(a1-6)]Man(b1-4)GlcNAc(b1-4)GlcNAc
# Summary of the method: as §1
# [19] = biological target: Neu5Ac(a2-6)Gal(b1-4)GlcNAc(b1-2)Man(a1-3)[Neu5Ac(a2-6)Gal(b1-4)GlcNAc(b1-2)Man(a1-6)]Man(b1-4)GlcNAc(b1-4)GlcNAc
# Summary of the method: as §1
# [20] = biological target: Neu5Ac(a2-6)Gal(b1-4)GlcNAc(b1-2)Man(a1-3)[Neu5Ac(a2-6)Gal(b1-4)GlcNAc(b1-2)Man(a1-6)]Man(b1-4)GlcNAc(b1-4)[Fuc(a1-6)]GlcNAc
# Summary of the method: as §1
# [21] = biological target: Neu5Ac(a2-6)Gal(b1-4)GlcNAc(b1-2)Man(a1-6)Man(b1-4)GlcNAc(b1-4)GlcNAc
# Summary of the method: as §1
# [22] = biological target: Neu5Ac(a2-6)Gal(b1-4)GlcNAc(b1-2)Man(a1-6)[Gal(b1-4)GlcNAc(b1-2)Man(a1-3)]Man(b1-4)GlcNAc(b1-4)GlcNAc
# Summary of the method: as §1
# [23] = biological target: Neu5Ac(a2-6)Gal(b1-4)GlcNAc(b1-2)Man(a1-6)[GlcNAc(b1-2)Man(a1-3)]Man(b1-4)GlcNAc(b1-4)GlcNAc
# Summary of the method: as §1
# [24] = biological target: Neu5Ac(a2-6)Gal(b1-4)GlcNAc(b1-2)Man(a1-6)[Man(a1-3)]Man(b1-4)GlcNAc(b1-4)GlcNAc
# Summary of the method: as §1
# [25] = biological target: Neu5Ac(a2-6)Gal(b1-4)GlcNAc(b1-2)[Neu5Ac(a2-6)Gal(b1-4)GlcNAc(b1-4)]Man(a1-3)[GlcNAc(b1-4)][Neu5Ac(a2-6)Gal(b1-4)GlcNAc(b1-2)[Neu5Ac(a2-6)Gal(b1-4)GlcNAc(b1-6)]Man(a1-6)]Man(b1-4)GlcNAc(b1-4)GlcNAc
# Summary of the method: as §1
# [26] = biological target: Neu5Ac(a2-6)Gal(b1-4)GlcNAc(b1-2)[Neu5Ac(a2-6)Gal(b1-4)GlcNAc(b1-4)]Man(a1-3)[GlcNAc(b1-4)][Neu5Ac(a2-6)Gal(b1-4)GlcNAc(b1-4)Man(a1-6)]Man(b1-4)GlcNAc(b1-4)GlcNAc
# Summary of the method: as §1
# [27] = biological target: Neu5Ac(a2-6)Gal(b1-4)GlcNAc(b1-2)[Neu5Ac(a2-6)Gal(b1-4)GlcNAc(b1-6)]Man(a1-6)[Neu5Ac(a2-6)Gal(b1-4)GlcNAc(b1-2)Man(a1-3)][GlcNAc(b1-4)]Man(b1-4)GlcNAc(b1-4)GlcNAc
# Summary of the method: as §1
# [28] = biological target: Neu5Ac(a2-6)Gal(b1-4)GlcNAc(b1-3)Gal(b1-3)GlcNAc
# Summary of the method: as §1
# [29] = biological target: Neu5Ac(a2-6)Gal(b1-4)GlcNAc(b1-3)Gal(b1-4)GlcNAc
# Summary of the method: as §1
# [30] = biological target: Neu5Ac(a2-6)Gal(b1-4)GlcNAc(b1-3)Gal(b1-4)GlcNAc(b1-2)Man(a1-3)[Neu5Ac(a2-6)Gal(b1-4)GlcNAc(b1-3)Gal(b1-4)GlcNAc(b1-2)Man(a1-6)]GalNAc
# Summary of the method: as §1
# [31] = biological target: Neu5Ac(a2-6)Gal(b1-4)GlcNAc(b1-3)Gal(b1-4)GlcNAc(b1-3)Gal(b1-4)GlcNAc
# Summary of the method: as §1
# [32] = biological target: Neu5Ac(a2-6)Gal(b1-4)GlcNAc(b1-3)Gal(b1-4)GlcNAc(b1-3)Gal(b1-4)GlcNAc(b1-2)Man(a1-3)[Neu5Ac(a2-6)Gal(b1-4)GlcNAc(b1-3)Gal(b1-4)GlcNAc(b1-3)Gal(b1-4)GlcNAc(b1-2)Man(a1-6)]GalNAc
# Summary of the method: as §1
# [33] = biological target: Neu5Ac(a2-6)Gal(b1-4)GlcNAc(b1-3)Gal(b1-4)GlcNAc(b1-3)GalNAc
# Summary of the method: as §1
# [34] = biological target: Neu5Ac(a2-6)Gal(b1-4)GlcNAc(b1-3)Gal(b1-4)GlcNAc(b1-3)[Neu5Ac(a2-6)Gal(b1-4)GlcNAc(b1-3)Gal(b1-4)GlcNAc(b1-6)]GalNAc
# Summary of the method: as §1
# [35] = biological target: Neu5Ac(a2-6)Gal(b1-4)GlcNAc(b1-3)Gal(b1-4)GlcNAc(b1-6)[Gal(b1-3)]GalNAc
# Summary of the method: as §1
# [36] = biological target: Neu5Ac(a2-6)Gal(b1-4)GlcNAc(b1-3)Gal(b1-4)[Fuc(a1-3)]GlcNAc(b1-3)Gal(b1-4)[Fuc(a1-3)]GlcNAc
# Summary of the method: as §1
# [37] = biological target: Neu5Ac(a2-6)Gal(b1-4)GlcNAc(b1-3)GalNAc
# Summary of the method: as §1
binder,measurement,setting,value
"Als1 (Candida albicans), P46590 (protein) KTITGVFDSFNSLTWSNAANYAFKGPGYPTWNAVLGWSLDGTSANPGDTFTLNMPCVFKYTTSQTSVDLTADGVKYATCQFYSGEEFTTFSTLTCTVNDALKSSIKAFGTVTLPIAFNVGGTGSSTDLEDSKCFTAGTNTVTFNDGDKDISIDVEFEKSTVDPSGYLYASRVMPSLNKVTTLFVAPQCENGYTSGTMGFSSSNGDVAIDCSNIHIGITKGLNDWNYPVSSESFSYTKTCTSNGIQIKYQNVPAGYRPFIDAYISATDVNQYTLAYTNDYTCAGSRLQSKPFTLRWTGYKNSDAGSNGIVIVATTRTVTDSTTAVTTLPFNPSVDKTKTIEILQPIPTTTITTSYVGVTTSYLTKTAPIGETATVIVDVPYHTTTTVTSEWTGTITTTTTRTNPTDSIDTVVVQVP",glycan array binding signal (z-score),[1],-0.667
same,glycan array binding signal (z-score),[2],0.102
same,glycan array binding signal (z-score),[3],-0.462
same,glycan array binding signal (z-score),[4],-0.291
same,glycan array binding signal (z-score),[5],-0.209
same,glycan array binding signal (z-score),[6],-0.192
same,glycan array binding signal (z-score),[7],-0.223
same,glycan array binding signal (z-score),[8],0.039
same,glycan array binding signal (z-score),[9],-0.516
same,glycan array binding signal (z-score),[10],-0.495
same,glycan array binding signal (z-score),[11],-0.22
same,glycan array binding signal (z-score),[12],-0.302
same,glycan array binding signal (z-score),[13],0.451
same,glycan array binding signal (z-score),[14],-0.55
same,glycan array binding signal (z-score),[15],-0.596
same,glycan array binding signal (z-score),[16],0.276
same,glycan array binding signal (z-score),[17],0.175
same,glycan array binding signal (z-score),[18],-0.709
same,glycan array binding signal (z-score),[19],-0.372
same,glycan array binding signal (z-score),[20],-0.555
same,glycan array binding signal (z-score),[21],-0.334
same,glycan array binding signal (z-score),[22],-0.194
same,glycan array binding signal (z-score),[23],-0.623
same,glycan array binding signal (z-score),[24],0.367
same,glycan array binding signal (z-score),[25],-0.67
same,glycan array binding signal (z-score),[26],-0.261
same,glycan array binding signal (z-score),[27],-0.081
same,glycan array binding signal (z-score),[28],-0.073
same,glycan array binding signal (z-score),[29],-0.643
same,glycan array binding signal (z-score),[30],1.05
same,glycan array binding signal (z-score),[31],-0.201
same,glycan array binding signal (z-score),[32],2.83
same,glycan array binding signal (z-score),[33],1.73
same,glycan array binding signal (z-score),[34],0.519
same,glycan array binding signal (z-score),[35],-0.05
same,glycan array binding signal (z-score),[36],-0.465
same,glycan array binding signal (z-score),[37],0.836
